The values below come from article PMC7822688, “W196 and the β-Hairpin Motif Modulate the Redox Switch of Conformation and the Biomolecular Interaction Network of the Apoptosis-Inducing Factor” (Oxidative Medicine and Cellular Longevity, 2021).

In assay [1] the target is WT human apoptosis-inducing factor hAIF_(Δ1-101) (human) (UniProt O95831). Briefly: SEC; HiPrep 26/60 Sephacryl S-200 HR, 50 mM phosphate, 150 mM NaCl, pH 7.4, 0.5 mL/min, 6°C; with a 10-fold excess of NADH (CTC state); monomer-dimer. (In general: In gel filtration, larger molecules generally elute earlier.)
Assay [2] shares this target. Briefly: cross-linking; 4 μM hAIF_(∆1-101) variant, 100-fold excess of BS^3, 10 mM phosphate, pH 7.4, room temperature, 12% SDS-PAGE; with an excess of NADH (CTC state).

As to “WT human apoptosis-inducing factor hAIF_(Δ[…]) (a stretch of the chain, no sequence given) (domain or fragment; other documents disagree on this pair)”, the stoichiometry N in assay [1] and in assay [2] was 2 each time.

The term stoichiometry N denotes the number of molecules, sites or subunits per partner or assembly.
